# Measurements as given in PubChem BioAssay AID485294 (National Center for Advancing Translational Sciences (NCATS), 2010).
# In all, about 370,000 compounds went through this assay and about 150 (0.041%) were called active. The inconclusive results got no clear call from the source; some entries with a clear call stand among them for comparison. Calls follow the shape of the dose curve; as a rule, active = well fitted inhibition curve with a large enough effect; inconclusive = small, poorly fitted or top-dose-only effect; inactive = flat fitted curve, though single readings scatter. No potency is given beside an inconclusive call; the fits are too rough.
# Target: Beta-lactamase (Escherichia coli (strain K12)) (UniProt P00811)
# Chain of UniProt P00811 (P00811 whole entry, looked up): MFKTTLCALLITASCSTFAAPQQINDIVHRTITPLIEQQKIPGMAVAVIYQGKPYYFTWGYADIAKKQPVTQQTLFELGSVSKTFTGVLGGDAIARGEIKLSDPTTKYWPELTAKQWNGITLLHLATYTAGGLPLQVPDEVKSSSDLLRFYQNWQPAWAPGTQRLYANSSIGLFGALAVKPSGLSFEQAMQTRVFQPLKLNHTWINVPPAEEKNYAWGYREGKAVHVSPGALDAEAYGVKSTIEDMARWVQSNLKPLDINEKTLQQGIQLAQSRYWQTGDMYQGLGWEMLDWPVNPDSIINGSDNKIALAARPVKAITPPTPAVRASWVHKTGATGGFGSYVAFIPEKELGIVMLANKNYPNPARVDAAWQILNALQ
# Assay: qHTS Inhibitors of AmpC Beta-Lactamase (assay with detergent); also: nearly all actives have a fitted effect of over 25% in size;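 as to activity change, negative = inhibition: 0% = no-compound wells and -100% = no-enzyme wells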
# Settings: AmpC hydrolysis of nitrocefin, absorbance 480 nm, 0.01% Triton; activity change, negative = inhibition: at 114 µM (top of the series)
# Procedure, shortened: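 AmpC (5.3 nM in the dispensed reagent) in 20 mM phosphate pH 7.0 with 0.01% (detergent screen) or 0.0001% Triton X-100 was preincubated with compounds for 15 min at room temperature. Nitrocefin was then added from an 800 uM solution, and hydrolysis was followed at 480 nm.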
# Potency is read from the fitted curve at half-maximal effect; tags tell the direction and shape of the fitted curve.
Compound,Potency,"activity change, negative = inhibition"
COc1cc(NC(=S)N2CCCCC2C)c(OC)cc1Cl (stereo not given),"inconclusive [inhibitor, full curve, poor fit]",
COC(=O)/C(=C\C(=O)c1ccccc1)Nc1cccc(C(F)(F)F)c1,"inconclusive [inhibitor, full curve, poor fit]",
CC12CCC(C(=O)Nc3ncc([N+](=O)[O-])s3)(OC1=O)C2(C)C (stereo not given),"inconclusive [inhibitor, partial curve, poor fit]",
CCOC(=O)Cc1csc(NC(NC(=O)OCC)(C(F)(F)F)C(F)(F)F)n1,"inconclusive [inhibitor, full curve, poor fit]",
O=C1CCC([N+](=O)[O-])C(c2ccc(F)c(Br)c2)N1 (stereo not given),,inactive: -6.56%
CCCCNS(=O)(=O)c1ccc(NC(=O)C(Sc2ccccc2)c2ccccc2)cc1 (stereo not given),,inactive: -11.4%
Cc1cc(C(=O)COC(=O)c2ccc(O)cc2)c(C)n1CC(F)(F)F,,inactive: -4.91%
Cc1ccc(-c2nnc(SCC(=O)NC3CCCC3)n2C)cc1,"inconclusive [inhibitor, partial curve, poor fit]",
CCCCCNCc1ccc(OCc2ccc(Cl)nc2)c(OC)c1,"inconclusive [inhibitor, single point]",
O=C(Cn1cnc2c(cnn2-c2ccc(Cl)cc2)c1=O)NC1CCCCC1,"inconclusive [inhibitor, full curve]",
COc1ccc(C(CNC(=O)c2oc3ccc(C)cc3c2C)N2CCCCC2)cc1 (stereo not given),"inconclusive [inhibitor, full curve, poor fit]",
COCCCn1c(SCCc2ccccc2)nc2cc(OC)c(OC)cc2c1=N,,inactive: -12.3%
CO/N=C/c1ccc(Oc2ccc(C)cc2)nc1,,inactive: -12.4%
O=C(c1cc2c(s1)-c1ccccc1OC2)N1CCCC1,"inconclusive [inhibitor, full curve, poor fit]",
O=C(O)CC12CC3CC(C1)CC(n1ncc(NCC4CCCO4)c(Cl)c1=O)(C3)C2 (stereo not given),,inactive: 6.66%
CC1(C)CC2CC(C)(CN2C(=O)COC(=O)c2cccc(O)c2)C1 (stereo not given),"inconclusive [inhibitor, full curve, poor fit]",
CN(C)S(=O)(=O)c1cccc(NC(=O)c2ccncc2)c1,"inconclusive [inhibitor, partial curve, poor fit]",
Nc1nc(-c2ccc(Cl)cc2Cl)cn1N,"inconclusive [inhibitor, full curve, poor fit]",
COc1cc(OC)cc(C(=O)N2CCCC(Nc3ccc(F)cc3)C2)c1 (stereo not given),"inconclusive [inhibitor, full curve]",
CC1CCCCC1NC(=O)CCCn1c(=S)[nH]c2ccsc2c1=O (stereo not given),"inconclusive [inhibitor, full curve, poor fit]",
Cc1ccccc1C(=O)NNC1=NCCC1,"inconclusive [inhibitor, single point]",
O=[N+]([O-])c1ccc(CN2CCN(c3ccccc3)CC2)o1,,inactive: -10.7%
O=C(NCc1ccco1)c1c(O)c2cccc3c2n(c1=O)CCC3,"inconclusive [inhibitor, partial curve, poor fit]",

Compound,Potency,"activity change, negative = inhibition"
CCC(=O)Nc1ccc(-c2nn3c(C)nnc3s2)cc1C,"inconclusive [inhibitor, full curve, poor fit]",
O=C(NC(CC(=O)N1CCN(c2ccc([N+](=O)[O-])cc2)CC1)c1ccccc1)c1ccccc1Cl (stereo not given),,inactive: -16.5%
COc1ccc(N2CCN(C(=O)CCNS(=O)(=O)c3ccccc3)CC2)cc1,"inconclusive [inhibitor, full curve, poor fit]",
Cc1nc2ccccc2c(=O)n1/N=C/c1ccc(O)c(O)c1O,"inconclusive [inhibitor, full curve, poor fit]",
CCCn1c(=O)c2sccc2n2c(CCCC(=O)Nc3ccccc3OCC)nnc12,,inactive: 7.08%
COCCCN(C(=O)c1cc(Cl)nc2ccccc12)c1c(N)n(Cc2ccccc2)c(=O)[nH]c1=O,,inactive: 0%
Cc1ccc(O)c(N)c1,,inactive: 2.73%
O=C(c1cnc2ccccn2c1=O)N1CCCc2ccccc21,"inconclusive [inhibitor, single point]",
O=C(NCCSCc1ccccc1Cl)C1CCN(S(=O)(=O)Cc2ccccc2)CC1,,inactive: 23.1%
Cc1cc(SCC(=O)Nc2ccccc2C)nc(C)n1,"inconclusive [inhibitor, full curve, poor fit]",
COCc1nnc(NC(=O)C2CC(=O)N(C3CCCCC3)C2)s1 (stereo not given),"inconclusive [inhibitor, full curve, poor fit]",
O=C(c1ccc2[nH]c3c(c2c1)CCCC3)N1CCN(c2ccc(F)cc2)CC1,"inconclusive [inhibitor, partial curve, poor fit]",
CCOC(=O)c1c(C)oc2c1c(C(c1cccnc1)N1CCN(C)CC1)c(O)c1ccccc12 (stereo not given),"inconclusive [inhibitor, full curve]",
COc1ccc(CNC(=O)COC(=O)c2n[nH]c3ccccc23)cc1OC,"inconclusive [inhibitor, partial curve, poor fit]",
CC1CCN(C(=O)/C(=C/c2ccccc2Cl)c2ccccc2)CC1,,inactive: -5.98%
CN1CCC(=NNC(=O)C(=O)Nc2ccccc2)CC1,,inactive: -11.9%
Oc1ccc(CNc2cccc(C(F)(F)F)c2)c2cccnc12,"inconclusive [inhibitor, partial curve]",
CCc1ccc(N2C(=O)Cc3c2nc(N)c(C#N)c3N)cc1,,inactive: -1.19%
CC(c1nnc(SCC(=O)Nc2cccnc2Cl)n1Cc1ccccc1)N(C)C (stereo not given),"inconclusive [inhibitor, single point]",
NC(=O)c1nsc(C(=O)N(c2ccccc2)C(C(=O)NC2CCCCC2)c2ccc(O)cc2)c1N (stereo not given),,inactive: 2.64%
C/C(CCc1ccccc1)=N\NC(=O)c1ccccc1[N+](=O)[O-],"inconclusive [inhibitor, single point]",
CCCOc1ccc(C(=O)c2ccccc2C(=O)OC2CCOC2=O)cc1OCCC (stereo not given),"inconclusive [inhibitor, full curve]",
